Results on 19 molecules are retold here after the supplement of paper PMC10369915.

The list shows a part of the results. Rule as the data show it: active = 3.2 or more and inactive = the rest. Most of these values are background signal.
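Also: displayed peptides selected on beads carrying the immobilized SH2 domain, with library peptides lacking any tyrosine serving as negative controls.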

The first test has as its target SHP2 C-SH2 domain E139D. Kind of test: enrichment score (SH2-bound / input frequency) (ratio); bacterial display of known human phosphotyrosine sites (pTyr-Var adds point mutants) read by sequencing; higher = stronger binding; tyrosines were phosphorylated by kinases first. As to conditions: peptide library: pTyr-Var.
With PTTKTYFPHFD [HBA1_Y43], the enrichment score was inactive: 0.735.
On the same count and under the same terms, the result for VPTSKYRGGGG [HBA1_Y141_L137P] reads inactive: 0.48.
With TLAHKYHGGGG [HBB_Y146_A141T], the enrichment score is inactive: 0.584.
On the same count and under the same terms, then ALAHEYHGGGG [HBB_Y146_K145E], with inactive: 0.973; and PVKAAYQKVVA [HBB_Y131_Q128K], with inactive: 0.939.
PVQAAYQNVVA [HBB_Y131_K133N]: the enrichment score was inactive: 2.46.
Still for that read-out and setting: the result for PVQAVYQKVVA [HBB_Y131_A130V] reads inactive: 0.919.
On the same count and under the same terms, then ALAQKYHGGGG [HBB_Y146_H144Q], with inactive: 0.587; and VHFARYLAMNK [HARS1_Y138_P134H], with inactive: 0.714; and ALAHKYLGGGG [HBB_Y146_H147L], with inactive: 0.511.
On the same count and under the same terms, then AHADEYGAEAL [HBA1_Y25_G23D], with inactive: 0.532; and PTTKTYFLHFD [HBA1_Y43_P45L], with inactive: 2.25.
For the molecule PTTKTYFPHFA [HBA1_Y43_D48A], the enrichment score is inactive: 0.951.
The same measure, in the same setting: then PTTKTYFPRFD [HBA1_Y43_H46R], with inactive: 0.806; and ELTSKYRGGGG [HBA1_Y141_V136E], with inactive: 0.558; and PVQAAYQQVVA [HBB_Y131_K133Q], with inactive: 1.23.
On the same count and under the same terms, then EHAGEYGAEAL [HBA1_Y25_A20E], with inactive: 0.412; and DLREKYMDCGG [HAP1_Y440], with inactive: 0.774.
Regarding ALTDNYMYVVI [HAGH_Y61_L64V], the enrichment score is inactive: 0.629.

In the next test the target is SHP2 C-SH2 domain wild-type. Described as above. As to conditions: peptide library: pTyr-Var.
PTTKTYFPHFD [HBA1_Y43]: the enrichment score is inactive: 0.583.
The same measure, in the same setting: the result for VPTSKYRGGGG [HBA1_Y141_L137P] reads inactive: 0.567; that for TLAHKYHGGGG [HBB_Y146_A141T], inactive: 0.51.
On the same count and under the same terms, the result for ALAHEYHGGGG [HBB_Y146_K145E] reads inactive: 0.98; that for PVKAAYQKVVA [HBB_Y131_Q128K], inactive: 0.906.
Same read-out and setting: the result for PVQAAYQNVVA [HBB_Y131_K133N] reads inactive: 2.
Consider PVQAVYQKVVA [HBB_Y131_A130V], for which the enrichment score was inactive: 0.951.
Consider ALAQKYHGGGG [HBB_Y146_H144Q], for which the enrichment score is inactive: 0.503.
Same read-out and setting: then VHFARYLAMNK [HARS1_Y138_P134H], with inactive: 0.632; and ALAHKYLGGGG [HBB_Y146_H147L], with inactive: 0.497.
Still for that read-out and setting: the result for AHADEYGAEAL [HBA1_Y25_G23D] reads inactive: 0.563; that for PTTKTYFLHFD [HBA1_Y43_P45L], inactive: 2.35.
Take PTTKTYFPHFA [HBA1_Y43_D48A]: the enrichment score was inactive: 0.83.
As for PTTKTYFPRFD [HBA1_Y43_H46R], the enrichment score is inactive: 0.69.
The same measure, in the same setting: the result for ELTSKYRGGGG [HBA1_Y141_V136E] reads inactive: 0.548.
With PVQAAYQQVVA [HBB_Y131_K133Q], the enrichment score is inactive: 0.953.
On the same count and under the same terms, then EHAGEYGAEAL [HBA1_Y25_A20E], with inactive: 0.438.
Take DLREKYMDCGG [HAP1_Y440]: the enrichment score was inactive: 0.832.
Regarding ALTDNYMYVVI [HAGH_Y61_L64V], the enrichment score was inactive: 0.736.

For another test, the target named is SHP2 N-SH2 domain L43F. The description is as above. As to conditions: peptide library: pTyr-Var.
Turning to PTTKTYFPHFD [HBA1_Y43], the enrichment score was inactive: 0.851.
Still for that read-out and setting: then VPTSKYRGGGG [HBA1_Y141_L137P], with inactive: 0.391; and TLAHKYHGGGG [HBB_Y146_A141T], with inactive: 0.59.
As for ALAHEYHGGGG [HBB_Y146_K145E], the enrichment score was inactive: 1.01.
On to PVKAAYQKVVA [HBB_Y131_Q128K], for which the enrichment score was inactive: 1.04.
Still for that read-out and setting: the result for PVQAAYQNVVA [HBB_Y131_K133N] reads inactive: 2.43.
Still for that read-out and setting: the result for PVQAVYQKVVA [HBB_Y131_A130V] reads inactive: 0.891; that for ALAQKYHGGGG [HBB_Y146_H144Q], inactive: 0.537; that for VHFARYLAMNK [HARS1_Y138_P134H], inactive: 0.64.
Still for that read-out and setting: the result for ALAHKYLGGGG [HBB_Y146_H147L] reads inactive: 0.45.
AHADEYGAEAL [HBA1_Y25_G23D]: the enrichment score was inactive: 0.496.
The same measure, in the same setting: then PTTKTYFLHFD [HBA1_Y43_P45L], with inactive: 2.72; and PTTKTYFPHFA [HBA1_Y43_D48A], with inactive: 0.731; and PTTKTYFPRFD [HBA1_Y43_H46R], with inactive: 0.696.
As to ELTSKYRGGGG [HBA1_Y141_V136E], the enrichment score is inactive: 0.533.
Same read-out and setting: then PVQAAYQQVVA [HBB_Y131_K133Q], with inactive: 1.04.
Still for that read-out and setting: the result for EHAGEYGAEAL [HBA1_Y25_A20E] reads inactive: 0.404; that for DLREKYMDCGG [HAP1_Y440], inactive: 0.602.
Still for that read-out and setting: the result for ALTDNYMYVVI [HAGH_Y61_L64V] reads inactive: 0.764.

For the next test, the target named is SHP2 N-SH2 domain T42A. Described as above. As to conditions: peptide library: pTyr-Var.
For the molecule PTTKTYFPHFD [HBA1_Y43], the enrichment score is inactive: 0.928.
Still for that read-out and setting: then VPTSKYRGGGG [HBA1_Y141_L137P], with inactive: 0.46.
On the same count and under the same terms, the result for TLAHKYHGGGG [HBB_Y146_A141T] reads inactive: 0.343; that for ALAHEYHGGGG [HBB_Y146_K145E], inactive: 1.04.
On to PVKAAYQKVVA [HBB_Y131_Q128K], for which the enrichment score is inactive: 0.869.
PVQAAYQNVVA [HBB_Y131_K133N]: the enrichment score is inactive: 3.09.
Same read-out and setting: the result for PVQAVYQKVVA [HBB_Y131_A130V] reads inactive: 1.17.
Take ALAQKYHGGGG [HBB_Y146_H144Q]: the enrichment score was inactive: 0.53.
Still for that read-out and setting: the result for VHFARYLAMNK [HARS1_Y138_P134H] reads inactive: 0.718; that for ALAHKYLGGGG [HBB_Y146_H147L], inactive: 0.443; that for AHADEYGAEAL [HBA1_Y25_G23D], inactive: 0.395.
Still for that read-out and setting: then PTTKTYFLHFD [HBA1_Y43_P45L], with inactive: 2.03; and PTTKTYFPHFA [HBA1_Y43_D48A], with inactive: 0.839; and PTTKTYFPRFD [HBA1_Y43_H46R], with inactive: 1.07.
On the same count and under the same terms, the result for ELTSKYRGGGG [HBA1_Y141_V136E] reads inactive: 0.579.
Regarding PVQAAYQQVVA [HBB_Y131_K133Q], the enrichment score is inactive: 1.37.
On the same count and under the same terms, then EHAGEYGAEAL [HBA1_Y25_A20E], with inactive: 0.404; and DLREKYMDCGG [HAP1_Y440], with inactive: 0.576.
Turning to ALTDNYMYVVI [HAGH_Y61_L64V], the enrichment score was inactive: 0.626.

Another test deals with SHP2 N-SH2 domain T52S. Described as above. As to conditions: peptide library: pTyr-Var.
As for PTTKTYFPHFD [HBA1_Y43], the enrichment score was inactive: 1.25.
Same read-out and setting: then VPTSKYRGGGG [HBA1_Y141_L137P], with inactive: 0.498.
Same read-out and setting: then TLAHKYHGGGG [HBB_Y146_A141T], with inactive: 0.782.
Same read-out and setting: then ALAHEYHGGGG [HBB_Y146_K145E], with inactive: 0.861; and PVKAAYQKVVA [HBB_Y131_Q128K], with inactive: 1.03; and PVQAAYQNVVA [HBB_Y131_K133N], with inactive: 2.47.
Turning to PVQAVYQKVVA [HBB_Y131_A130V], the enrichment score is inactive: 0.721.
Same read-out and setting: the result for ALAQKYHGGGG [HBB_Y146_H144Q] reads inactive: 0.721; that for VHFARYLAMNK [HARS1_Y138_P134H], inactive: 0.761; that for ALAHKYLGGGG [HBB_Y146_H147L], inactive: 0.528.
Same read-out and setting: then AHADEYGAEAL [HBA1_Y25_G23D], with inactive: 0.401; and PTTKTYFLHFD [HBA1_Y43_P45L], with inactive: 2.3.
On to PTTKTYFPHFA [HBA1_Y43_D48A], for which the enrichment score is inactive: 0.907.
On the same count and under the same terms, the result for PTTKTYFPRFD [HBA1_Y43_H46R] reads inactive: 0.72.
On the same count and under the same terms, the result for ELTSKYRGGGG [HBA1_Y141_V136E] reads inactive: 0.53; that for PVQAAYQQVVA [HBB_Y131_K133Q], inactive: 0.824.
EHAGEYGAEAL [HBA1_Y25_A20E]: the enrichment score was inactive: 0.511.
Still for that read-out and setting: the result for DLREKYMDCGG [HAP1_Y440] reads inactive: 0.668; that for ALTDNYMYVVI [HAGH_Y61_L64V], inactive: 0.658.

The next test concerns the target SHP2 N-SH2 domain wild-type. The description is as above. As to conditions: peptide library: pTyr-Var.
For PTTKTYFPHFD [HBA1_Y43], the enrichment score is inactive: 0.902.
In the case of VPTSKYRGGGG [HBA1_Y141_L137P], the enrichment score was inactive: 0.598.
Still for that read-out and setting: the result for TLAHKYHGGGG [HBB_Y146_A141T] reads inactive: 0.636; that for ALAHEYHGGGG [HBB_Y146_K145E], inactive: 1.24; that for PVKAAYQKVVA [HBB_Y131_Q128K], inactive: 1.01.
For the molecule PVQAAYQNVVA [HBB_Y131_K133N], the enrichment score is inactive: 2.22.
As to PVQAVYQKVVA [HBB_Y131_A130V], the enrichment score was inactive: 0.807.
Same read-out and setting: the result for ALAQKYHGGGG [HBB_Y146_H144Q] reads inactive: 0.987; that for VHFARYLAMNK [HARS1_Y138_P134H], inactive: 0.499.
Still for that read-out and setting: the result for ALAHKYLGGGG [HBB_Y146_H147L] reads inactive: 0.512; that for AHADEYGAEAL [HBA1_Y25_G23D], inactive: 0.567; that for PTTKTYFLHFD [HBA1_Y43_P45L], inactive: 2.12.
PTTKTYFPHFA [HBA1_Y43_D48A]: the enrichment score is inactive: 1.11.
PTTKTYFPRFD [HBA1_Y43_H46R]: the enrichment score was inactive: 0.747.
As for ELTSKYRGGGG [HBA1_Y141_V136E], the enrichment score is inactive: 0.734.
Still for that read-out and setting: then PVQAAYQQVVA [HBB_Y131_K133Q], with inactive: 1.02; and EHAGEYGAEAL [HBA1_Y25_A20E], with inactive: 0.538; and DLREKYMDCGG [HAP1_Y440], with inactive: 0.651.
Same read-out and setting: then ALTDNYMYVVI [HAGH_Y61_L64V], with inactive: 1.06.
